This passage reports enrichment ratio results from a collection of fitness landscapes (doi:10.1126/science.1257360).

The other results are listed elsewhere or left out.

B1: PhoQ; a variant is named by its letters at X, in order, P23837 (parent)
chain: MKKLLRLFFPLSLRVRFLLATAAVVLVLSLAYGMVALIGYSVSFDKTTFRLLRGESNLFYTLAKWENNKLHVELPENIDKQSPTMTLIYDENGQLLWAQRDVPWLMKMIQPDWLKSNGFHEIEADVNDTSLLLSGDHSIQQQLQEVREDDDDAEMTHSVAVNVYPATSRMPKLTIVVVDTIPVELKSSYMVWSWFIYVLSANLLLVIPLLWVAAWWSLRPIEALAKEVRELEEHNRELLNPATTRELTSLVRNLNRLLKSERERYDKYRTTLTDLTHSLKTPLXXLQXXLRSLRSEKMSVSDAEPVMLEQISRISQQIGYYLHRASMRGGTLLSRELHPVAPLLDNLTSALNKVYQRKGVNISLDISPEISFVGEQNDFVEVMGNVLDNACKYCLEFVEISARQTDEHLYIVVEDDGPGIPLSKREVIFDRGQRVDTLRPGQGVGLAVAREITEQYEGKIVAGESMLGGARMEVIFGRQHSAPKDE

The variants in the assay derive from B1. In words: enrichment ratio after two sorts for PhoP signalling (ratio (wild type AVST 3.29)); higher = more functional. Particulars: with PhoP (E. coli).
Take AKDT: the enrichment ratio is at most 0.25.
The value for GHEG was at most 0.25; that for SPIF was at most 0.25; that for MYKP was at most 0.25.
The value for ASMK was 17; that for LLVS was at most 0.25; that for IWRI was at most 0.25.
The result for HECQ reads at most 0.25.
For MVWP, the enrichment ratio was at most 0.25.
The result for LEWS reads at most 0.25.
The value for FAIL was 0.486.
The value for HCHF was at most 0.25.
As for QRKP, the enrichment ratio is at most 0.25.
The result for DLNT reads at most 0.25; that for WVFR, at most 0.25; that for GDNC, at most 0.25.
The result for HYMM reads at most 0.25; that for GHYG, at most 0.25; that for KAFI, at most 0.25.
The result for WRQF reads at most 0.25; that for EQTS, at most 0.25; that for WRDN, at most 0.25.
As for PRNI, the enrichment ratio is at most 0.25.
The result for RWSD reads at most 0.25; that for TVKI, at most 0.25; that for GGQP, at most 0.25.
The result for WGEI reads at most 0.25; that for PHFS, at most 0.25.
The result for LLAQ reads at most 0.25; that for LMYR, at most 0.25; that for TKTT, 11.6.
In the case of MVFM, the enrichment ratio was at most 0.25.
The result for YTIT reads at most 0.25; that for FEYL, at most 0.25; that for WAWV, at most 0.25.
The value for HDGM was at most 0.25.
As for EKTI, the enrichment ratio is at most 0.25.
The result for HPYM reads at most 0.25; that for KNVF, at most 0.25; that for NGKT, at most 0.25.
The result for YIFF reads at most 0.25; that for SKPK, at most 0.25.
The result for WKNA reads at most 0.25; that for IYDH, at most 0.25.
In the case of RSEG, the enrichment ratio is at most 0.25.
The value for RPEI was at most 0.25; that for YESS was at most 0.25.
Turning to YEGQ, the enrichment ratio was at most 0.25.
The result for QDTR reads at most 0.25; that for RYID, at most 0.25.
The value for KVDK was at most 0.25; that for FFEN was at most 0.25.
The result for FPCR reads at most 0.25; that for IEIQ, at most 0.25.
ESIK: the enrichment ratio was at most 0.25.
The value for HCAY was at most 0.25; that for YDIA was at most 0.25; that for YDSP was at most 0.25.
Turning to NMWV, the enrichment ratio is at most 0.25.
The result for PWYI reads at most 0.25; that for YLYG, at most 0.25.
The result for RKRW reads at most 0.25.
The result for VHCN reads at most 0.25; that for PWMR, at most 0.25; that for FMWC, at most 0.25.
As for TRPP, the enrichment ratio was at most 0.25.
The result for IFPL reads at most 0.25; that for YPEY, at most 0.25; that for GVRR, at most 0.25.
The result for PTWK reads at most 0.25; that for KVTG, at most 0.25; that for TLPC, at most 0.25.
The result for RVYP reads at most 0.25.
In the case of MVKP, the enrichment ratio was at most 0.25.
The value for HDFP was at most 0.25.
The value for RNPM was at most 0.25.
Consider IKRY, for which the enrichment ratio is at most 0.25.
The result for TTDR reads at most 0.25; that for STPV, 9.19; that for EAGW, at most 0.25.
The value for PYNW was at most 0.25.
The value for EFID was at most 0.25; that for GPNR was at most 0.25; that for PLVV was at most 0.25.
